Data published in the supplement of paper PMC11417369.
± gives the standard deviation of the averaged measurements. The list shows a part of the results.

System: PfAP2-G AP2 domain (GST-tagged)
Assay: gcPBM binding intensity (ln(normalized median fluorescence intensity)); higher = stronger DNA binding
Procedure, shortened: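 Binding of GST-tagged P. falciparum DNA-binding domains, expressed in E. coli and used at about 25 μg on average, was carried out for 1 h in 1× PBS containing 1% milk, 0.2 mg/ml BSA, 0.5% salmon testes DNA and 0.03% Triton X-100. The target was an Agilent 4 × 180k array of primer-extended double-stranded 36-bp intergenic genomic probes plus negative controls, read with Alexa488 anti-GST antibody at 488 nm. Binding intensity is the highest Masliner-normalised natural-log median intensity across replicate spots of either probe orientation.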

Row | Sequence | gcPBM binding intensity (ln)
1 | GTTATAAATTTTTTTTTTTTTTTTTTTTTTTTTTTT [CACACA_negctrl_site848] | 11 ± 0.43
2 | TAAAAAAAAACAGAAACACACATTATTCATATAGAT [CACACA_site7052] | 9.68 ± 0.4
3 | ATAAAATAAAAGGAATGTACTTTTTTTATTGTAATT [XGTACX_site4372] | 11.4 ± 0.88
4 | AACAAATTGAAACAATAATTGGAAAAAAAAAAAAAA [CACACA_negctrl_site1145] | 9.62 ± 0.4
5 | AACAAATACGGACACACACACACACTAGAAAAAAAA [CACACA_site4442] | 11.4 ± 0.86
6 | ATATATATATATATATGTACTCATATTTTATTATTT [XGTACX_site898] | 11.4 ± 0.94
7 | AAATGTATATATGTATGTACATATATATATATATAT [XGTACX_site5778] | 11.1 ± 0.61
8 | AGTTTCTATTTAGTGTGTACTTAAGAAAAATATCTC [XGTACX_site82] | 11.3 ± 0.79
9 | ATAAACTGAGTGGTTACACACAAAACCAATAATTTT [CACACA_site3478] | 10.29 ± 0.092
10 | TCGCAAATAAATTAATGTACACATATATATATATAT [XGTACX_site5145] | 11.3 ± 0.86
11 | TATTGATAATTTTATATATACATACATAAATAAATA [CACACA_negctrl_site1687] | 9.79 ± 0.22
12 | TTTTCAATTTTTTATGAACACACAAAAAAAAAAAAA [CACACA_site8808] | 10.1 ± 0.55
13 | AATATATATAAAAAAGTGCATTAGGATAACCATATA [GTGCAC_site9590] | 10.2 ± 0.13
14 | TATATTTTATATTAGTGTACAAATTTCATTTTTCAT [XGTACX_site2204] | 11 ± 0.5
15 | TATATATATATATTCACACATATAGTATTGTATTTA [CACACA_site5147] | 9.96 ± 0.39
16 | TAATAATAGAAACACACACACATTTTTAATAATACA [CACACA_site1216] | 10.1 ± 0.21
17 | ATATATTTATATTTGTGTACATATTTATTATATTTA [XGTACX_site404] | 11.5 ± 0.67
18 | AATATGAATATCTATACACACACATATATATACACA [CACACA_site8459] | 9.865 ± 0.007
19 | ATTTGTGACCACACAAATAAATAAATAAAAAAAAAA [TGCATGCA_negctrl_site328] | 11.2 ± 1
20 | TGTTAAAAGAAAAAAAGTACAAAAAATTATACATTT [XGTACX_site467] | 11.2 ± 0.75
21 | AAGAAGAAAAACCATTGTACGAACTAACATATATAA [XGTACX_site3226] | 11 ± 0.49
22 | GGTATACATAATACTTGTACTAGGCAACAATAAGAT [XGTACX_site1437] | 10.8 ± 0.52

Row | Sequence | gcPBM binding intensity (ln)
23 | AAAAAAAATTTCTCAAGTACACAATTTTTTTTTGTT [XGTACX_site5874] | 11.4 ± 0.92
24 | TTTTTTTAAATATATAAGATAAATTTATAAATAAAT [XGTACX_negctrl_site282] | 9.72 ± 0.3
25 | ATATCAAACTAGAATGTGCGCATGCATTCAAGTTTT | 9.84
26 | TTATGTTCATTATATGCACACATATATATAAATGTA [CACACA_site8947] | 9.92 ± 0.17
27 | GATTTTATAATTTCTACACACATATAAGAATATTCA [CACACA_site2802] | 10.1 ± 0.23
28 | TTATAATAAAAAAATTCCTAAGTCCGTATATATTAT [CACACA_negctrl_site1698] | 10.4 ± 0.45
29 | TTTTATTTTTATAACAGTACATAAGTAATTGTTCAA [XGTACX_site7574] | 10.6 ± 0.47
30 | TTTTATCATCACATTTGTCAAAAAAAAAAAAAAAAA [CACACA_negctrl_site1296] | 9.85 ± 0.64
31 | ATATTCTTTATATGCATACACACCTAATATAGGGAC [CACACA_site1533] | 10.2 ± 0.16
32 | AAATTTGGATGACTCAATAAATTATAATATATATAT [CACACA_negctrl_site298] | 9.85 ± 0.085
33 | ATTATTACATATAATGCATGTGCATATATTTTTATA [TGCATGCA_site701] | 10 ± 0.11
34 | TTCAATTTTTTAAAGCGTACATATAAAAGTTATATG [XGTACX_site731] | 11.4 ± 0.86
35 | AATCATTTGTTATAAGTCTAAAATTATTAGAATATT [XGTACX_negctrl_site151] | 9.65 ± 0.26
36 | CCCAATAATTAAACAACACACATATTTATAGGTAAT [CACACA_site7445] | 9.92 ± 0.057
37 | TATATGACAAGATAAAGTACAAATTTGTATATATAT [XGTACX_site3027] | 11 ± 0.61
38 | ATATATTTATATATTACACACAATATTGTAGACATA [CACACA_site4669] | 10.1 ± 0.16
39 | AAAAATAAAAAAAGCACACACATATAAATAAATATA [CACACA_site6968] | 9.955 ± 0.049
40 | TAATTTTTCTTTTATTAACACACATATAAATAAATA [CACACA_site8935] | 10 ± 0.26
41 | ATATATATACTGTGTACACAAATATATATTATATAT [CACACA_site6104] | 11.6 ± 0.84
42 | AACCATTTTAAATATGCACACAGATGCACTAACACA [CACACA_site8565] | 10.3 ± 0.2
43 | GAATTATATAATTAAAGTACATTGTTTATATAATCA [XGTACX_site7246] | 11 ± 0.68
44 | TAAAATAAAAAGTTTACACACATATATAATTTTAAT [CACACA_site662] | 9.82 ± 0.042
